Laboratory results reported in article PMC4336329 (PLoS ONE, 2015).
Among all 310,000 compounds or so, about 2,200 (0.71%) showed an effect of 50% or more. Effects have a minus sign here. This is one part of the list.

Target: human ether-à-go-go-related gene (hERG) potassium channel (human, UniProt Q12809)
Assay: primary screen, population patch clamp on CHO cells stably expressing hERG

Chain of human ether-à-go-go-related gene (hERG) potassium channel (Q12809 whole entry, looked up): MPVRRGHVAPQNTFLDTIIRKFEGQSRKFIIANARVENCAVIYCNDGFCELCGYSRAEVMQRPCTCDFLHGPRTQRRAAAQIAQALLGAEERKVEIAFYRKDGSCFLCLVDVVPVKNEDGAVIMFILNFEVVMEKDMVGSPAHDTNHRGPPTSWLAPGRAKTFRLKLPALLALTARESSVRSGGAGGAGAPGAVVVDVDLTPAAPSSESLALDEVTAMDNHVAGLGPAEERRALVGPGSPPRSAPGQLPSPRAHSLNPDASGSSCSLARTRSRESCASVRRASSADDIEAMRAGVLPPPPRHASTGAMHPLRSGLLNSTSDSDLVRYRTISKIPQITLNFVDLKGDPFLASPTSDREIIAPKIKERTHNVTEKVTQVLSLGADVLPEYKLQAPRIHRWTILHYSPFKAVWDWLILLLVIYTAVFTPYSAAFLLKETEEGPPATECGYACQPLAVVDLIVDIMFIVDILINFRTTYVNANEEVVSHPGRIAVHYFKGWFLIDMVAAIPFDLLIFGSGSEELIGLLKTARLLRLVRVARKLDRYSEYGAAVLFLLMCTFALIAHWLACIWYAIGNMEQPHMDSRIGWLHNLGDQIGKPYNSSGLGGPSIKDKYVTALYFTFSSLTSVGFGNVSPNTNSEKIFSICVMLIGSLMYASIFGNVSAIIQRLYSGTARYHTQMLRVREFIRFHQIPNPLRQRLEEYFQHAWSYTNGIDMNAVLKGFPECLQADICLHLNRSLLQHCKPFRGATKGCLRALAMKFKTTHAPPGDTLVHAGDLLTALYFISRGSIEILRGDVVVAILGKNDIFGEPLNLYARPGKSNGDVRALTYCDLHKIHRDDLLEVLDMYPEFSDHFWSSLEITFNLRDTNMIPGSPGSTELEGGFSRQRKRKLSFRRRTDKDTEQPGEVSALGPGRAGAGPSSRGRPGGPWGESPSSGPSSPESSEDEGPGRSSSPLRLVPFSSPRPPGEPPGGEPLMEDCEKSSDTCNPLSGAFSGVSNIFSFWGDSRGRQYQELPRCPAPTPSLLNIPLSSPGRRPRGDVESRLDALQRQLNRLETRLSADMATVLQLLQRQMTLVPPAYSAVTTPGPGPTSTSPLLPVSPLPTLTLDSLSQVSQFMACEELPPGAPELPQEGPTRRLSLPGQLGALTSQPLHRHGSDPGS

Structure (SMILES)	hERG current change (%, negative = inhibition) at 1uM
CCn1nnc(NC(=S)NC(=O)c2ccc(-c3cccc(Cl)c3)o2)n1	12.2%
CCOC(=O)C1CCN(C(=O)c2cc(S(=O)(=O)N3CCCCCC3)ccc2OC)CC1	-7.42%
O=C1N/C(=C/c2cccn2-c2ccc(F)cc2)C(=O)N1Cc1ccccc1F	16.7%
Cc1c(C(=O)NCCSCc2c(F)cccc2Cl)cnn1-c1ccc(Cl)cc1	-17.8%
Cc1cccc(NC(=O)c2cc([N+](=O)[O-])ccc2N2CCN(C)CC2)c1	-41.2%
CCCOc1ccc(/C=C/C(=O)OCC(=O)N(C)c2c(N)n(Cc3ccccc3)c(=O)[nH]c2=O)cc1OCC	17.8%
COc1ccccc1OCC(=O)Nc1ccc(S(=O)(=O)Nc2nc(C)cc(C)n2)cc1	14%
CN[C@H](C)[C@H](O)c1ccccc1	15.3%
N#C/C(=C\c1ccccn1)c1nc2ccccc2s1	13.8%
COc1ccc(CN2CCNC(=O)C2CC(=O)NCC2CCOCC2)c(F)c1 (stereo not drawn)	17.6%
Cc1ccc(-n2nc3c(=O)n(CC(=O)NC(C)CCc4ccccc4)nc(C)c3c2C)cc1 (stereo not drawn)	0.24%
COc1ccc(-n2nnc3c(=O)n(CC(=O)Nc4ccc5c(c4)OCCO5)cnc32)cc1OC	7.77%
O=C1OC(CCl)CN1Cc1ccc([N+](=O)[O-])cc1 (stereo not drawn)	-3.19%
COc1ccc(S(=O)(=O)N2CCC(C(=O)OCC(=O)c3ccccc3)CC2)cc1[N+](=O)[O-]	3.89%
Cc1ccc(NC2=C([N+](=O)[O-])CS(=O)(=O)C2)cc1	1.77%
O=C(NC(=S)Nc1ccc(S(=O)(=O)Nc2nccs2)cc1)c1ccc(F)cc1	18.6%
CC(NC(=O)CNC(=O)C1O[C@@H]2OC(C)(C)O[C@@H]2[C@H]2OC(C)(C)O[C@@H]12)C(=O)O (stereo partly drawn)	20.5%
COc1cccc(-c2nc(CS(=O)CC(=O)NCc3ccccc3Cl)c(C)o2)c1 (stereo not drawn)	3.14%
Cc1cccc(C(=O)NC(Oc2ccccc2)C(Cl)(Cl)Cl)c1 (stereo not drawn)	17.5%
CCOC(=O)c1ccc(NC(=S)N(CCCN2CCN(CC)CC2)Cc2ccco2)cc1	-45.4%
CCn1c(SCC(=O)NNC(=O)c2ccc(OC)cc2)nnc1C(C)C	12.1%

Structure (SMILES)	hERG current change (%, negative = inhibition) at 1uM
CCOC(=O)N1CCN(c2nc3ccc(C(=O)c4ccccc4)cc3n3cnnc23)CC1	-3.26%
O=C(O)C12CC3CC(C1)CC(n1ncc(NCc4ccco4)c(Cl)c1=O)(C3)C2	6.89%
CCCC(=O)C1CCN(Cc2ccccc2)CC1	4.46%
O=C(Nc1ccnc(-c2ccncc2)n1)c1ccc(Cl)cc1	3.63%
Cc1sc2ncnc(SCC(=O)Nc3nc(-c4ccc(F)c(F)c4)cs3)c2c1C	13.7%
CN(C(=O)CN1CCN(c2ccc([N+](=O)[O-])cn2)CC1)c1ccccc1	-22.4%
O=C(c1ccccc1Nc1ccc(SC(F)F)cc1)N1CCCCCC1	5.63%
COC(=O)c1ccc(Cn2c(O)c(N=O)c3ccccc32)o1	7.56%
CCNc1nc(Oc2ccc(C(=O)OC)cc2)nc(N2CCOCC2)n1	5.93%
O=C1/C(=C\c2cccnc2)SC(=S)N1C1CCS(=O)(=O)C1 (stereo not drawn)	-0.667%
CCn1c(/C=C/Nc2ccccc2)[n+](CC)c2ccc(C(=O)OCC(F)(F)F)cc21.[I-]	-90.5%
CC(=O)c1ccc(OCCCN2CCCCC2)cc1.O=C(O)C(=O)O	-7.59%
CCCc1nnc(-c2ccc(OC)cc2)o1	11.6%
O=C(NCCn1cccn1)C1CCC(=O)N(CCc2ccc(Cl)cc2)C1 (stereo not drawn)	10.4%
CC1Cc2ccccc2N1C(=O)Cn1c(=O)oc2cc(S(=O)(=O)NC3CCCC3)ccc21 (stereo not drawn)	4.85%
NC(=O)N/N=C/c1ccc(OCc2cccc(Cl)c2)cc1	11.6%
O=[N+]([O-])c1ccc(N2CCOCC2)cc1NC(c1ccccc1)c1ccccc1	14.9%
CCCOc1ccc(N2C(=O)CC(N3CCC(O)(c4cccc(C(F)(F)F)c4)CC3)C2=O)cc1 (stereo not drawn)	7.56%
O=C1CCc2ccccc2N1Cc1ccccc1	9.52%
Cc1cc(SCC(=O)OCC(=O)N(C)c2ccccc2)nc2ccccc12	-7.23%
Cc1cccc(N2CCN(C(=O)c3cccs3)CC2)c1C	3.85%
